The source gives no read counts; variants with many changes may rest on few reads.
B1: CPEB3 Ribozyme (parent)
chain: UAACAGGGGGCCACAGCAGAAGCGUUCACGUCGCAGCCCCUGUCAGAUUCUGGUGAAUCUGCGAAUUCUGCUGUAUAUCUC

Variants of: B1
Assay: self-cleavage, relative activity (ratio to wild type); higher = more cleavage; in vitro, sequencing
Procedure, shortened: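 CPEB3 self-cleaving ribozyme mutant libraries were made by rounds of error-prone PCR, barcoded, and transcribed in vitro with T7 RNA polymerase for 5 hours at 37°C. Cleavage occurred during transcription and a 15 min DNase I step before EDTA stop. RNAs were reverse transcribed with template switching and Illumina-sequenced, with DNA sequencing mapping barcodes to variants. Relative activity is the variant's cleaved/total read fraction divided by wild type's (minimum 5 reads), averaged across three batches.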

Variant	self-cleavage
UAACAGGGGGCCACAGCAGUAGCGUUCACGUCGCAGCCCCUGUCAGAUUCUGGUGGAUCUGCGAAUUCAGCUGUAUAUCCC [A20U A56G U69A U80C]	0.17
UAACAGGGGGCCACAGCAGUAGCGUUCACGUCGCGGCCCCUGUCAAAUUCUGGUGAAUCUGCGAAUUCUGCCGUAUAUCUC [A20U A35G G46A U72C]	0.18
UAACAGGGGGCCACAGCAGUAGCGUUCACGUCGCGCCCCCUGUCAGAUUCUGGUGAAUCUGCGAAUUCUGCUGUAUAUCUC [A20U A35G G36C]	0.11
UAACAGGGGGCCACAGCAGUAGCGUUCACGUCGCAGCCCCUGUCAGGAUCUGGUGAAUCUGCGAAUUCAGCUGUGUAUCUC [A20U A47G U48A U69A A75G]	0.03
UAACAGGGGGCCACAGCAGUAGCGUUCACGUCGCAGCCCCUGUCUGAUUCUGGUUAAUCUGCGAAUUCUGCUGUAUAUCUC [A20U A45U G55U]	0.19
UAACAGGGGGCCACAGCAGUAGCGUUCACGUCGCAGCCCCUGUCAGAUUCUGGUGGAACUGCGAAUUCAGCUGUAUAUCUC [A20U A56G U58A U69A]	0.08
UAACAGGGGGCCACAGCAGUAGCGUUCACGUCGCAGCCCCUGUCGGAUUCUGGUGAAUCUGCGAAUUCUGCCGUAUACCUC [A20U A45G U72C U78C]	0.34
UAACAGGGGGCCACAGCAGUAGCGUUCGCGUCGCAGCCCCUGUCAGAUUCUGGUGAAUCUGCGAAUUCUGCUGUAUACCUC [A20U A28G U78C]	0.09
UAACAGGGGGCCACAGCAGUAGCGUUCACGUCGCAGCCCCUGUCAGAUUCUGGUGGAUCUGCGAAUUCUGCUGUAUGUCUC [A20U A56G A77G]	0.14
UAACAGGGGGCCACAGCAGUAGUGAGCACGUCGCAGCCCCUGCCAGAUUCUGGUGAAUCUGCGGAUUCUGCUGUAUAUCUC [A20U C23U U25A U26G U43C A64G]	0.17
UAACAGGGGGCCACAGCAGUAGCGUUCACGUCGCUGCCCCUGUCAGAUUCUCGUGAAUCUGCGAAUUCUGCUGUAUGUCUC [A20U A35U G52C A77G]	0.1
UAACAGGGGGCCACAGCAGUAGCGUUCGCGUCGCAGCCCCUGUCAGACUCUGGUGAAUCUGCGAAUUCUGCUGUAUAUCUC [A20U A28G U48C]	0.05
UAACAGGGGGCCACAGCAGUAGCGUUCACGUCGCUGCCCCUGUCAGAUUCUGGUGUAUCUGCGAAUUCUGCUGUAUAUCUC [A20U A35U A56U]	0.14
UAACAGGGGGCCACAGCAGUAGCGUUCACGUCGCAGCCCCUGUCAGAUUCUGGUGGAUCUGCGAAUUCCGCUGUAUAUCUC [A20U A56G U69C]	0.07
UAACAGGGGGCCACAGCAGUAGCGUUCACGUCGCUGCCCCUGUCAGAUUCUGGUGAAUCUGCAAGUUCAGCUGUAUAUCUC [A20U A35U G63A A65G U69A]	0.14
UAACAGGGGGCCACAGCAGUAGCGUUCACGUCGCAGCCCCUGUCGGAUUCUGGUGAAUCUGCGAAUCCUGCCGUAUGUCUC [A20U A45G U67C U72C A77G]	0.04
UAACAGGGGGCCACAGCAGUAGCGUUCACGUCGCAGCCCCUGUCAGAUUCUGGUGAGUCUGCGAAAUCUGCUGUAUAUCUC [A20U A57G U66A]	0.31

Variant	self-cleavage
UAACAGGGGGCCACAGCAGUAGCGUUCACGUCGCUGCCCCUGUCAGAUUCUGGUGAAUCUGCGAAUUCUGCUGUAUUUCUC [A20U A35U A77U]	0.22
UAACAGGGGGCCACAGCAGUAGCGUUCACGUCGCUGCCCCCGUCAGAUUCUGGUGAAUCUGCGAAUUCUGCUGUAUAUCUC [A20U A35U U41C]	0.18
UAACAGGGGGCCACAGCAGUAGCGUUCACGUCGCAGCCCCUGUCAGAUUCUGGUGAAUCUGCGAGUUCUGCUGUACUUCUC [A20U A65G U76C A77U]	0.16
UAACAGGGGGCCACAGCAGUAGCGUUCGCGUCGCAGCCCCUGUCAGACUCUGGUGAAUCUGCAAAGUCUGCUGUAUGUCUC [A20U A28G U48C G63A U66G A77G]	0
UAACAGGGGGCCACAGCAGUAGCGUUCUCGCCGCAGCCCCUGUCGGACUCUGGUGGAUCUGCGAAUUCUGCUGUAUAUCUC [A20U A28U U31C A45G U48C A56G]	0.21
UAACAGGGGGCCACAGCAGUAGCGUUCACGUCGCUGCCCCCGUCAGAUUCUGGUGAAUCUGCGAAUUCUGCUGUAUAACUC [A20U A35U U41C U78A]	0.08
UAACAGGGGGCCACAGCAGUAGCGUUCACGUCGCUGCCCCUGUCAGAUUCUGAUGAAUCUGCGAAUUCUGCUGUAUAUCUC [A20U A35U G53A]	0.1
UAACAGGGGGCCACAGCAGUAGCGUUCUCGUCGCAGCCCCUGUCAGAUUCUGGUGAGUCUGCGAAUUCUGCUGUAUAUCUC [A20U A28U A57G]	0.14
UAACAGGGGGCCACAGCAGUAGCGUUCACGUCGCAGCCCCUGUCAGAUUCUGGUGUAUCUGCGAAUUCUGCUGUAUAACUC [A20U A56U U78A]	0.25
UAACAGGGGGCCACAGCAGUAGCGUUCACGUCGCUGCCCCUGUCAGAUUCUGGCGAAUCUGCGAAUUCUGCUGUAUAUCUC [A20U A35U U54C]	0.08
UAACAGGGGGCCACAGCAGUAGCGUUCUCGUCGCAGCCCCUGUCAGAUUCUGGUGAAUCUGCGAAUUCUGCUGUAUUUCUC [A20U A28U A77U]	0.4
UAACAGGGGGCCACAGCAGUAGCGUUCACGUCGCAGCCCCUGUCGUAUUCUGGUGAAUCUGCGAAUUCUGCUGUAUAUCUC [A20U A45G G46U]	0.27
UAACAGGGGGCCACAGCAGUAGCGUUCACGUCGCAGCCCCUGUCAGGUUCAGGUGAAUCAGCGAAUUCUGCUGUAUAUCUC [A20U A47G U51A U60A]	0.18
UAACAGGGGGCCACAGCAGUAGCGUUCGCGUCGCAGCCCCUGUCAGAUUCCGGCGAAUCUGCGAAUUCUGCUGUAUAUCCC [A20U A28G U51C U54C U80C]	0.1
UAACAGGGGGCCACAGCAGUAGCGUUCACGUCGCAGCCCCUGUCAGGUUCUGGUGAAUCUGCGAAUUCUGCUGUGUAUCUC [A20U A47G A75G]	0.42
UAACAGGGGGCCACAGCAGUAGCGUUCACGUCGCAGCCCCUGUCUGGUUCUGGUGAAUCUGCGAAUUCUGCUGUAUAUCUC [A20U A45U A47G]	0.12
UAACAGGGGGCCACAGCAGUAGCGUUCACGUCGCAGCCCCUGUCAGGUUCUGGUGAAUCUGCGAAUUCUGCUGUAUACCUC [A20U A47G U78C]	0.2
